Reference: a collection of fitness landscapes (doi:10.1126/science.1257360)
The list shows a part of the results.

B1: PhoQ; a variant is named by its letters at X, in order, P23837 (parent)
chain: MKKLLRLFFPLSLRVRFLLATAAVVLVLSLAYGMVALIGYSVSFDKTTFRLLRGESNLFYTLAKWENNKLHVELPENIDKQSPTMTLIYDENGQLLWAQRDVPWLMKMIQPDWLKSNGFHEIEADVNDTSLLLSGDHSIQQQLQEVREDDDDAEMTHSVAVNVYPATSRMPKLTIVVVDTIPVELKSSYMVWSWFIYVLSANLLLVIPLLWVAAWWSLRPIEALAKEVRELEEHNRELLNPATTRELTSLVRNLNRLLKSERERYDKYRTTLTDLTHSLKTPLXXLQXXLRSLRSEKMSVSDAEPVMLEQISRISQQIGYYLHRASMRGGTLLSRELHPVAPLLDNLTSALNKVYQRKGVNISLDISPEISFVGEQNDFVEVMGNVLDNACKYCLEFVEISARQTDEHLYIVVEDDGPGIPLSKREVIFDRGQRVDTLRPGQGVGLAVAREITEQYEGKIVAGESMLGGARMEVIFGRQHSAPKDE

Variants of: B1
Experiment: enrichment ratio after two sorts for PhoP signalling (ratio (wild type AVST 3.29)); higher = more functional
Details: with PhoP (E. coli)

LKRL and WWGA cannot be ordered by enrichment ratio: ≤ 0.25 for the first, ≤ 0.25 for the second.

NWPV and MFPY cannot be ordered by enrichment ratio: ≤ 0.25 for the first, ≤ 0.25 for the second.

MRIY and WYWP cannot be ordered by enrichment ratio: ≤ 0.25 for the first, ≤ 0.25 for the second.

THYN and QIHQ cannot be ordered by enrichment ratio: ≤ 0.25 for the first, ≤ 0.25 for the second.

VVNG and IRGT cannot be ordered by enrichment ratio: ≤ 0.25 for the first, ≤ 0.25 for the second.

VLMV and KSYL cannot be ordered by enrichment ratio: ≤ 0.25 for the first, ≤ 0.25 for the second.

PMRF and FGCN cannot be ordered by enrichment ratio: ≤ 0.25 for the first, ≤ 0.25 for the second.

WAPS and NPNS cannot be ordered by enrichment ratio: ≤ 0.25 for the first, ≤ 0.25 for the second.

WKGF and QRDV cannot be ordered by enrichment ratio: ≤ 0.25 for the first, ≤ 0.25 for the second.

PTCT and QYEL cannot be ordered by enrichment ratio: ≤ 0.25 for the first, ≤ 0.25 for the second.

YCFF and RWDC cannot be ordered by enrichment ratio: ≤ 0.25 for the first, ≤ 0.25 for the second.

QMAK and HLSA cannot be ordered by enrichment ratio: ≤ 0.25 for the first, ≤ 0.25 for the second.

FCAV and MQHF cannot be ordered by enrichment ratio: ≤ 0.25 for the first, ≤ 0.25 for the second.

HQPH and SARL cannot be ordered by enrichment ratio: ≤ 0.25 for the first, ≤ 0.25 for the second.

KHVM and KLKG cannot be ordered by enrichment ratio: ≤ 0.25 for the first, ≤ 0.25 for the second.

Going from AMGH to YHMD, the enrichment ratio falls from 51 to ≤ 0.25.

VCGG and WQFI cannot be ordered by enrichment ratio: ≤ 0.25 for the first, ≤ 0.25 for the second.

First: KECY
Second: THSL
The enrichment ratio of the first is lower: ≤ 0.25 for the first, 10.4 for the second.

DFQA and YIIM cannot be ordered by enrichment ratio: ≤ 0.25 for the first, ≤ 0.25 for the second.

DCFY and FDMQ cannot be ordered by enrichment ratio: ≤ 0.25 for the first, ≤ 0.25 for the second.

FWKF and GPNC cannot be ordered by enrichment ratio: ≤ 0.25 for the first, ≤ 0.25 for the second.

WEFG and PDPC cannot be ordered by enrichment ratio: ≤ 0.25 for the first, ≤ 0.25 for the second.

KDTP and WSFQ cannot be ordered by enrichment ratio: ≤ 0.25 for the first, ≤ 0.25 for the second.

HDKK and NYDK cannot be ordered by enrichment ratio: ≤ 0.25 for the first, ≤ 0.25 for the second.

Compared with TMGM, GGES is lower in enrichment ratio: 3.21 for the first, ≤ 0.25 for the second.

ATRW and GMVE cannot be ordered by enrichment ratio: ≤ 0.25 for the first, ≤ 0.25 for the second.

Going from LEAG to AMTC, the enrichment ratio rises from ≤ 0.25 to 20.7.

QQTF and KDKA cannot be ordered by enrichment ratio: ≤ 0.25 for the first, ≤ 0.25 for the second.

SPMD and IKYS cannot be ordered by enrichment ratio: ≤ 0.25 for the first, ≤ 0.25 for the second.

Going from KSVA to SQMA, the enrichment ratio rises from ≤ 0.25 to 8.75.

HENF and DMYY cannot be ordered by enrichment ratio: ≤ 0.25 for the first, ≤ 0.25 for the second.

HDVC and LIDA cannot be ordered by enrichment ratio: ≤ 0.25 for the first, ≤ 0.25 for the second.

NAMP and NRGA cannot be ordered by enrichment ratio: ≤ 0.25 for the first, ≤ 0.25 for the second.

NLYT and QECY cannot be ordered by enrichment ratio: ≤ 0.25 for the first, ≤ 0.25 for the second.

Compared with YGLN, SNMA is higher in enrichment ratio: 5.21 for the first, 7.05 for the second.

EHMY and YTWW cannot be ordered by enrichment ratio: ≤ 0.25 for the first, ≤ 0.25 for the second.

DISG and HFKM cannot be ordered by enrichment ratio: ≤ 0.25 for the first, ≤ 0.25 for the second.

TRGV and TQGW cannot be ordered by enrichment ratio: ≤ 0.25 for the first, ≤ 0.25 for the second.

YEIV and VCYW cannot be ordered by enrichment ratio: ≤ 0.25 for the first, ≤ 0.25 for the second.

EAQP and KVFE cannot be ordered by enrichment ratio: ≤ 0.25 for the first, ≤ 0.25 for the second.

Going from TRLY to FQIP, the enrichment ratio falls from 4.81 to ≤ 0.25.

WGSG and WRKA cannot be ordered by enrichment ratio: ≤ 0.25 for the first, ≤ 0.25 for the second.

WWQP and LEWG cannot be ordered by enrichment ratio: ≤ 0.25 for the first, ≤ 0.25 for the second.

TPYE and DYSL cannot be ordered by enrichment ratio: ≤ 0.25 for the first, ≤ 0.25 for the second.

SWDA and ESCI cannot be ordered by enrichment ratio: ≤ 0.25 for the first, ≤ 0.25 for the second.

KMQF and LTAG cannot be ordered by enrichment ratio: ≤ 0.25 for the first, ≤ 0.25 for the second.

IYCV and YKYH cannot be ordered by enrichment ratio: ≤ 0.25 for the first, ≤ 0.25 for the second.

PQDV and FIFW cannot be ordered by enrichment ratio: ≤ 0.25 for the first, ≤ 0.25 for the second.

IFQV and RKVS cannot be ordered by enrichment ratio: ≤ 0.25 for the first, ≤ 0.25 for the second.

FEMW and IENK cannot be ordered by enrichment ratio: ≤ 0.25 for the first, ≤ 0.25 for the second.

TYES and KVIC cannot be ordered by enrichment ratio: ≤ 0.25 for the first, ≤ 0.25 for the second.

Compared with TFSI, RHLQ is lower in enrichment ratio: 7.21 for the first, ≤ 0.25 for the second.

VGVG and NIMF cannot be ordered by enrichment ratio: ≤ 0.25 for the first, ≤ 0.25 for the second.

EAMF and VCAP cannot be ordered by enrichment ratio: ≤ 0.25 for the first, ≤ 0.25 for the second.

WLPL and DNKA cannot be ordered by enrichment ratio: ≤ 0.25 for the first, ≤ 0.25 for the second.

NLPD and ACPK cannot be ordered by enrichment ratio: ≤ 0.25 for the first, ≤ 0.25 for the second.

NNMD and RYGR cannot be ordered by enrichment ratio: ≤ 0.25 for the first, ≤ 0.25 for the second.

Compared with MQCH, FFMF is lower in enrichment ratio: 4.28 for the first, ≤ 0.25 for the second.

EIIS and YRDV cannot be ordered by enrichment ratio: ≤ 0.25 for the first, ≤ 0.25 for the second.

PRWQ and RNQS cannot be ordered by enrichment ratio: ≤ 0.25 for the first, ≤ 0.25 for the second.

HWLF and LWLV cannot be ordered by enrichment ratio: ≤ 0.25 for the first, ≤ 0.25 for the second.

QFKY and EHTI cannot be ordered by enrichment ratio: ≤ 0.25 for the first, ≤ 0.25 for the second.

RLSF and NQVT cannot be ordered by enrichment ratio: ≤ 0.25 for the first, ≤ 0.25 for the second.

QDIG and WYCQ cannot be ordered by enrichment ratio: ≤ 0.25 for the first, ≤ 0.25 for the second.

HFSH and LMKQ cannot be ordered by enrichment ratio: ≤ 0.25 for the first, ≤ 0.25 for the second.

YWPC and YIRW cannot be ordered by enrichment ratio: ≤ 0.25 for the first, ≤ 0.25 for the second.

First: YMAN
Second: TLCN
The enrichment ratio of the first is lower: 0.263 for the first, 2.3 for the second.

First: YQQI
Second: GNTL
The enrichment ratio of the first is lower: ≤ 0.25 for the first, 6.85 for the second.

RQTL and RFVC cannot be ordered by enrichment ratio: ≤ 0.25 for the first, ≤ 0.25 for the second.

PNYL and RMQV cannot be ordered by enrichment ratio: ≤ 0.25 for the first, ≤ 0.25 for the second.

Compared with NTTF, TNCC is higher in enrichment ratio: ≤ 0.25 for the first, 2.69 for the second.

First: GEIF
Second: GICA
The enrichment ratio of the first is lower: ≤ 0.25 for the first, 11.2 for the second.

DEQS and AEMP cannot be ordered by enrichment ratio: ≤ 0.25 for the first, ≤ 0.25 for the second.

QITQ and PAFA cannot be ordered by enrichment ratio: ≤ 0.25 for the first, ≤ 0.25 for the second.

FENE and LFYA cannot be ordered by enrichment ratio: ≤ 0.25 for the first, ≤ 0.25 for the second.

AGVE and YVGL cannot be ordered by enrichment ratio: ≤ 0.25 for the first, ≤ 0.25 for the second.

For EYEQ, the enrichment ratio was ≤ 0.25.
